Survival data for 88 compounds are collected here from PubChem BioAssay AID463173 (ICCB-Longwood Screening Facility, Harvard Medical School, 2010).

In all, about 52,000 compounds went through this assay and about 4,300 (8.3%) were called active. Cut-off read from the data, not from the text of the source: active = survival mostly below about 52% (no sharp cut-off); inactive = mostly above about 56%. The list shows a part of the results.

For the experiment, the system named is DeltatarO mutant. The experiment in a line: S. aureus survival, RN4220 and DeltatarO strains – OD600, teichoic acid synthesis inhibitors, primary screen (AID 463173). Particulars: S. aureus RN4220 wild type/DeltatarO growth, OD600, 18 h, hits give low values, screened at 18.75 µg/mL (by protocol).
For the compound `COC(=O)COc1ccc(Oc2nc(NC(C)(C)C)nc(N(C)C)n2)nn1`, the survival is inactive: 70%.
The figure for `NC(=O)C1CCN(C(=S)NCCc2ccccc2)CC1` is inactive: 69%; for `CC(Sc1nc2c([nH]c3ccccc32)c(=O)n1-c1ccccc1)c1ccccc1` (stereo not drawn) it is inactive: 77%.
Take `CCCCn1c(=O)nc2n(-c3ccc(F)cc3)c3ccccc3cc-2c1=O`: the survival is active: 41%.
With `COc1ccc(S(=O)(=O)N(C)CC(=O)NCc2ccc3c(c2)OCO3)cc1` the figure was inactive: 89%.
The figure for `CCOC(=O)C1CCN(C(=O)c2ccc3c(c2)N=C(CC)c2cc(C)ccc2S3)CC1` is active: 36%; for `Cc1ccc(-c2cc(C(F)(F)F)n3ncc(-c4ccc(Cl)cc4)c3n2)cc1` it is inactive: 65%; for `O=C(O)c1ccc(C2Nc3ccccc3-c3nnc(SCc4ccc(Cl)cc4)nc3O2)cc1` (stereo not drawn) it is inactive: 85%.
The figure for `O=C(c1ccco1)N1CCN(C(=O)c2cnn(-c3cccc(F)c3)c2C2CCNCC2)CC1` is inactive: 89%.
Turning to `Cc1cccc(-c2nc(SCC(=O)N(C)c3ccccc3)c3c(=O)n(C)c(=O)n(C)c3n2)c1`, the survival is inactive: 74%.
The figure for `COc1ccccc1OCc1nc(-c2cccc(C)c2)no1` is active: -3%; for `COc1cccc(C(=O)Nc2ccc(C(=O)OCc3cc(=O)n4nc(C5CC5)sc4n3)cc2)c1` it is inactive: 79%; for `Cn1c(=O)cc(SCC(=O)N2CCN(c3ccccc3)CC2)c2ccccc21` it is inactive: 87%.
With `O=C(c1cccc(Cl)c1)N1CCC(c2nc3ccccc3o2)CC1` the figure was inactive: 85%; with `O=C(Cn1c(=O)n2nc(-c3cccc(F)c3)nc2c2ccccc21)N1CCN(c2ccccc2F)CC1`, inactive: 116%.
Take `CC1CCN(C(=O)C(C)Sc2nc(-c3ccccc3)cc(C(F)(F)F)n2)CC1` (stereo not drawn): the survival was active: -1%.
The figure for `COc1ccccc1NC(=O)C1=C(C)Nc2nc(SCc3cccc(F)c3)nn2C1c1ccc(C(=O)O)cc1` (stereo not drawn) is inactive: 170%; for `COc1cccc(CNC(=O)c2cc3ccc4cccnc4c3[nH]2)c1` it is inactive: 83%; for `Cc1occc1-c1nnc(SCC(=O)Nc2ccc3c(c2)OCO3)n1CC(C)C` it is inactive: 63%.
With `O=C(c1ccco1)N1CCCC(c2nc(-c3ccc(S(=O)(=O)NCc4ccccc4)cc3)no2)C1` (stereo not drawn) the figure was inactive: 74%.
With `O=C(CSc1nc2c(cnn2-c2ccc(F)cc2)c(=O)[nH]1)Nc1ccccc1C(F)(F)F` the figure was inactive: 106%; with `CC1CCc2c(sc(NC(=S)NC(=O)c3ccn(C)n3)c2C(N)=O)C1` (stereo not drawn), inactive: 99%; with `CCC(=O)N1CCc2cc(S(=O)(=O)CCC(=O)NCc3ccc(OC)cc3)ccc21`, inactive: 121%.
With `Cc1ccc(CNc2oc(-c3ccc(COc4ccc(C)cc4)o3)nc2C#N)cc1`, the survival was inactive: 65%.
The figure for `CCCOc1ccc(C(=O)NCC2OCCc3ccccc32)cc1` (stereo not drawn) is inactive: 49%.
With `Cc1ccc(NC(=O)c2c(C)nc3sc(C(=O)Nc4ccc(F)cc4)c(N)c3c2-c2ccc(C)o2)c(C)c1` the figure was inactive: 60%.
With `CC1CN(C(=O)CCC(=O)Nc2cc(F)ccc2F)c2ccccc2S1` (stereo not drawn), the survival was inactive: 51%.
The figure for `Cc1ccc(C)c(NC(=O)Cn2c(=O)n(-c3ccc(CC(=O)NCC4CCCO4)cc3)c(=O)c3ccccc32)c1` (stereo not drawn) is inactive: 99%; for `O=C(Nc1ccc(Cl)cc1F)c1cnc2sc(N3CCOCC3)nn2c1=O` it is inactive: 73%.
On to `O=C(CSc1nnc(-c2ccccc2F)o1)Nc1cccc(C(F)(F)F)c1`, for which the survival is inactive: 54%.
For the compound `COc1ccc(C2C(C(=O)Nc3ccc(Cl)cc3)=C(C)Nc3nc(SCc4cccc(C)c4)nn32)cc1OC` (stereo not drawn), the survival is inactive: 99%.
In the case of `COc1ccc(-c2nc(C)c(CCNC(=O)c3cccs3)s2)cc1OC`, the survival was inactive: 84%.
With `COc1ccccc1CNc1cc(C)nc2nc(-c3ccc(C)cc3)nn12` the figure was inactive: 93%.
The figure for `O=C(c1ccccc1)N1CCN(C2CCCCC2)CC1` is inactive: 107%.
As for `CC(C)(C)OC(=O)N1CCC(c2c(C(=O)N3CCN(c4ccccn4)CC3)cnn2-c2ccccc2)CC1`, the survival was inactive: 96%.
The figure for `Cc1ccc2nc(NC(=O)CSc3nccn3-c3ccc(Cl)cc3)sc2c1` is inactive: 71%; for `COc1ccc(-n2c(SCC(=O)N3CCc4ccccc43)nc3c([nH]c4ccccc43)c2=O)cc1` it is inactive: 92%; for `CCOC(=O)C1CCCN(C(=O)Cn2ncc3c(C)n(Cc4ccccc4Cl)c(C)c3c2=O)C1` (stereo not drawn) it is inactive: 125%.
With `CCN(CC)CCCNC(=O)CCCn1ncn2c(cc3occc32)c1=O` the figure was inactive: 96%; with `COc1ccc(CN(C(=O)c2cc3ccccc3oc2=O)C2CCS(=O)(=O)C2)cc1OC` (stereo not drawn), inactive: 52%.
With `CC1CCCCN1C(=O)Cn1ncc2c3ccccc3n(Cc3ccccc3F)c2c1=O` (stereo not drawn) the figure was active: 32%.
For the compound `CC(C)(C)C1CCc2c(sc3nc(-c4cc5ccccc5oc4=O)[nH]c(=O)c23)C1` (stereo not drawn), the survival is inactive: 77%.
With `COc1ccccc1-c1noc(-c2ccc(NC3CCCCC3)c([N+](=O)[O-])c2)n1` the figure was active: 41%; with `Cc1c(-c2cccc(NC(=O)Nc3ccc(Cl)cc3)c2)nc2ncccn12`, active: -2%; with `c1ccc(-c2noc(-c3cccnc3NCc3ccco3)n2)cc1`, active: 60%.
With `COCCNC(=O)Cn1c(=O)n(CCCCCC(=O)NCc2ccccc2Cl)c(=O)c2sccc21` the figure was inactive: 77%; with `Cc1cccc(Cn2c(SCc3ccc(C(=O)NCc4ccccc4F)cc3)nc3ccncc32)c1`, inactive: 84%.
On to `Cc1ccc(NC(=O)Cn2c(=O)oc3cc(S(=O)(=O)N4CCCCC4)ccc32)c(Cl)c1`, for which the survival is inactive: 81%.
With `Cc1oc2ncn(CC(C)C)c(=O)c2c1C(=O)NCCc1ccccc1` the figure was inactive: 96%; with `COc1cccc(OCC(=O)NCCS(=O)(=O)N2CCN(c3ccccc3F)CC2)c1`, inactive: 78%.
Take `Cc1ccc(-c2nc(CNC(=O)Nc3ccccc3)c(C)o2)cc1`: the survival is inactive: 71%.
Turning to `CCN(CC)C(=O)CSc1nc2ccsc2c(=O)n1Cc1ccccc1Cl`, the survival was inactive: 81%.
With `Cn1c(=O)n(C)c2cc(/C=C(/C#N)C(=O)NCc3ccco3)ccc21` the figure was inactive: 78%.
With `CCc1nc2cccnc2n1-c1ccc(CC(=O)Nc2c(C)cccc2C)cc1` the figure was inactive: 67%.
With `Cc1cc(C)n2c(Nc3ccc(C(C)C)cc3)c(-c3ccsc3)nc2n1` the figure was inactive: 102%; with `COCCCNC(=O)c1cnc2sc(N3CCCCCC3)nn2c1=O`, inactive: 88%.
For `Cc1ccc2c(c1)-c1c(cnn1CC(=O)N1CCN(c3ccccc3F)CC1)CO2`, the survival was inactive: 73%.
The figure for `CCCCN(CCCNC(=O)CN1N=C(c2ccc(C)cc2)CCC1=O)c1ccccc1` is inactive: 92%.
With `COc1cccc(NC(=O)CCc2nc3c(C)nn(-c4ccc(C)cc4)c3n(C)c2=O)c1` the figure was inactive: 81%; with `O=c1c(=O)n(Cc2ccc(Cl)cc2)ccn1Cc1ccc(F)cc1`, inactive: 54%.
Regarding `CCSc1nc2c(c(=O)[nH]c(=O)n2C)n1CC`, the survival is inactive: 73%.
The figure for `Nc1nnc(SCC(=O)C2CC2)s1` is inactive: 80%.
With `Cc1ccc(NC(=O)c2ccc(CN3CC(=O)N4CCCCC4C3=O)cc2)cc1` (stereo not drawn) the figure was active: -5%; with `CCc1cccc(NC(=O)Cn2c(=O)n(-c3cccc(Cl)c3)c(=O)c3c2c2cc(C)ccc2n3C)c1`, inactive: 62%; with `Cc1ccc(S(=O)(=O)N(C)CC(=O)O)cc1`, inactive: 80%.
On to `COc1ccc(OC)c(CNC(=O)c2cnc3c(C)cccn3c2=O)c1`, for which the survival is inactive: 102%.
The figure for `CCc1nn2c(=O)cc(COC(=O)c3ccc(NC(=O)COc4ccc(C)cc4)cc3)nc2s1` is inactive: 115%; for `Cn1c(SCC(=O)N2CCCc3ccccc32)ncc(C(=O)Nc2ccccc2)c1=O` it is inactive: 94%.
The figure for `COc1ccc2[nH]c3nc(SCC(=O)NC(C)(C)C)nnc3c2c1` is inactive: 98%; for `CC1=C(C(=O)Nc2ccc(C)cc2C)C(c2ccc(C(=O)O)cc2)n2nc(SCc3ccccc3)nc2N1` (stereo not drawn) it is inactive: 75%.
On to `CCOc1ccc(CNC(=O)CC(C)n2nc(C)cc2C)cc1OC` (stereo not drawn), for which the survival was inactive: 74%.
The figure for `CCOC(=O)N1CCN(C(=O)CN(C)S(=O)(=O)c2cc(Cl)ccc2Cl)CC1` is inactive: 81%; for `Cc1ccc2c(c1)c1c(c(=O)n(-c3ccccc3)c(=O)n1CC(=O)c1ccc(F)cc1)n2C` it is inactive: 91%; for `Cc1ccc(OCCCC(=O)Nc2ccc3c(c2)OCO3)cc1` it is inactive: 100%.
The figure for `COc1ccc(-n2cc(-c3ccccc3)c3c(NC4CCCC4)ncnc32)cc1` is inactive: 72%; for `Cc1cccc(Oc2nc3c(c(=O)n(C)c(=O)n3C)n2Cc2ccccc2)c1C` it is inactive: 53%; for `CC(C)(C)NS(=O)(=O)c1ccc(NC(=O)CN2C(=O)c3ccccc3C2=O)cc1` it is inactive: 91%.
The figure for `CC(C)CC(=O)Nc1cc(-c2ccccc2F)nn1-c1ccccc1` is inactive: 84%; for `Cc1cccc(C)c1OCc1cc(=O)n2c3c(sc2n1)CCCC3` it is active: -17%.
With `CSc1ccc(Cn2nnc(C(=O)Nc3ccc(C)cc3Cl)c2N)cc1`, the survival is inactive: 99%.
The figure for `CCN(c1ccccc1)S(=O)(=O)c1ccc(-c2cc(C)no2)s1` is inactive: 134%.
The figure for `Cc1cc(C)cc(NC(=O)CSc2nc(=O)n(Cc3ccccn3)c3c2CCC3)c1` is inactive: 74%; for `CCOC(=O)C(C)Sc1nc(-c2ccccc2Cl)cc(-c2ccccc2)c1C#N` (stereo not drawn) it is inactive: 64%.
With `Cc1ccc2[nH]c(=O)c(CN(C(=O)c3cccc(Cl)c3)C(C)(C)C)cc2c1` the figure was inactive: 94%.
Take `Cc1ccc(NC(=O)c2cc3nc(-c4ccccc4)cc(-c4ccccc4)n3n2)cc1`: the survival is inactive: 60%.
With `Cc1ccc(CNC(=O)c2cnn(-c3cccc(C)c3)c2C2CCN(C(=O)OC(C)(C)C)CC2)cc1` the figure was inactive: 75%; with `COc1ccc(CCNC(=O)c2ccc(Cn3c(=O)c4ccccc4n(Cc4cccc(C)c4)c3=O)cc2)cc1OC`, inactive: 111%.
The figure for `CCC1CCCCN1S(=O)(=O)c1cc(C(=O)Nc2ccc(C)c(F)c2)ccc1F` (stereo not drawn) is inactive: 94%.
